Measurements from PubChem BioAssay AID761 (NMMLSC, 2007).
Among all 190,000 compounds or so, about 400 (0.21%) were called active. The shares of active, inactive and inconclusive entries below differ from those in the screen.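 Rule for the calls: active = percent activity GTP binding at least 20 points away from the 100% baseline, either down as inhibitor or up as activator; inconclusive = compound flagged as likely green fluorescent from well-wide comparison; inactive = the rest.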

target: Cell division control protein 42 homolog (Homo sapiens) (UniProt P60953); experiment: wildtype Cdc42 fluorescent GTP binding changes, either direction – biochemical, multiplex bead flow cytometry, Bodipy-GTP, primary screen (AID 761); details: GST-Cdc42 beads, at 10 µM, actives lie on both sides;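 note: median bead fluorescence of bound Bodipy-FL-GTP at 100 nM; 0% = excess unlabeled GTP control and 100% = no compound control; below 100% means less GTP binding so inhibitor and above means activator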
Chain of UniProt P60953 (P60953 whole entry, looked up): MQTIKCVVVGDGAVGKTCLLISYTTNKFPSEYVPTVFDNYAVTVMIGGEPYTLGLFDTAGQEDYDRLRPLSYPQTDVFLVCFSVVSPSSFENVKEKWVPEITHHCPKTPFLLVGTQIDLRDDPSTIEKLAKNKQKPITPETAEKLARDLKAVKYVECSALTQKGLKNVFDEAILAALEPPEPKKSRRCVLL

SMILES | percent activity (GTP binding)
COc1ccccc1NC(=O)CN1CCN(C2c3ccccc3-c3ccccc32)CC1 | inconclusive: 95%
Cc1ccc(S(=O)(=O)CCSc2nc(C)cc(C(F)(F)F)c2C#N)cc1 | inconclusive: 110%
O=C1c2ccccc2CCC12N=NCC2c1ccccc1 (stereo not drawn) | inactive: 98%
CCn1nnnc1SCC(=O)N(C1CCCCC1)C1CCCCC1 | inconclusive: 96%
C=CCNC(=O)c1ccc(OC2CCN(S(=O)(=O)N(C)C)CC2)cc1 | inactive: 96%
O=C(C/C=N/OCc1c(Cl)cccc1Cl)c1cnc(-c2ccccc2)s1 | inconclusive: 96%
COc1cc(C(=O)NCCCNc2nc3cc(C)c(C)cc3cc2C#N)cc(OC)c1OC | inactive: 104%
O=C(Cc1ccc(Cl)cc1)Nc1ccc(SC(F)F)cc1 | inactive: 101%
CC1(C)OC(=O)C(=Cc2ccc(-c3ccc(Cl)c(C(=O)O)c3)o2)C(=O)O1 | inconclusive: 86%
CCOC(=O)c1ccc(NC(=O)CCc2ccc(CC)o2)cc1 | inconclusive: 104%
O=C(c1ccccc1SCc1ccccc1)N1CCOCC1 | inactive: 98%
O=c1[nH]n(Cc2ccccc2)c(=O)c2ccccc12 | inactive: 98%
COCCSc1nnc(NC(=O)c2cc(OC)c(OC)cc2[N+](=O)[O-])s1 | inactive: 102%
CC(=O)NC(CCCN1C(=O)c2ccccc2C1=O)c1nnn(C)n1 (stereo not drawn) | inactive: 100%
Cn1c(=O)n(Cc2ccccc2F)c(=O)c2c1nc1n2CCN1Cc1ccco1 | inconclusive: 81%
COc1ccc(NC(=O)/C(C#N)=C\c2ccc(OCc3ccc(C(=O)O)cc3)c(OC)c2)cc1 | inconclusive: 84%
CN(C)c1cc[n+](CC(=O)Nc2ccc(Oc3ccccc3)cc2)cc1 | inactive: 97%
Cc1cccc(C(=O)NNC(=O)c2ccccc2)c1 | inconclusive: 94%
CCOc1ccc(C2=Nn3c(nnc3-c3ccccn3)SC2)cc1 | inconclusive: 85%
O=C(Cn1cnc2cc([N+](=O)[O-])ccc2c1=O)NCCc1ccc(Cl)cc1 | inconclusive: 74%
O=S(=O)(c1cccc(-c2nc3n(n2)Cc2ccccc2-3)c1)N1CCCCC1 | inconclusive: 89%
CCn1c(SCC(=O)Nc2ccccc2N2CCCCC2)nc2c1c(=O)n(C)c(=O)n2C | inconclusive: 90%
COc1cccc(C(=O)CSc2nnc(CNc3nc(-c4ccccc4)cs3)n2C)c1 | inconclusive: 96%
Cc1cccc(N2C(=O)c3cccnc3C2=O)c1 | inconclusive: 106%

SMILES | percent activity (GTP binding)
Nc1nonc1NC(=O)CSc1ncccc1C(=O)O | inconclusive: 104%
CCS(=O)(=O)N1CCC(C(=O)NCCCOC)CC1 | inconclusive: 106%
O=C(N/C(=C\c1ccccc1)C(=O)N1CCCCCC1)c1ccccc1 | inconclusive: 93%
COc1ccc(S(=O)(=O)Nc2cccc(F)c2C)cc1C(=O)N1CCOCC1 | inactive: 98%
Cc1sc2nc(CN3CCOCC3)[nH]c(=S)c2c1C | inconclusive: 92%
Cc1ccc(CS(=O)(=O)CCC(=O)N2CCOCC2)cc1 | inactive: 97%
CCN(CC)S(=O)(=O)c1ccc2nc(NC(=O)c3cccs3)sc2c1 | inconclusive: 92%
CCOc1cc(/C=N/Nc2nc(N3CCCCC3)nc(N3CCCCC3)n2)ccc1OC(=O)c1ccco1 | inactive: 95%
Cc1sc(-c2ccncc2)nc1OC(=O)c1ccc(F)cc1F | inactive: 92%
COC(=O)[C@H](C)[C@H]1C[C@]1(C)[C@H](NC(=O)OCc1ccccc1)c1ccccc1 | inconclusive: 108%
O=C(NCc1ccccn1)C(=O)N/N=C/c1ccc2c(c1)OCO2 | inconclusive: 96%
NC(=O)c1sc(=S)n2c1[nH]c(=O)c1sccc12 | inconclusive: 86%
O=C(CCCCCNc1nc(=S)[nH]c2ccccc12)N1CCN(c2ccccn2)CC1 | inactive: 91%
COc1ccc(/C=N/NC(=O)c2ccc(COc3cccc4cccnc34)cc2)cc1OC | inconclusive: 87%
COc1cc2[nH]c(=S)nc(NCc3ccccn3)c2cc1OC | inactive: 83%
O=C(NC(=S)NCCN1CCOCC1)c1ccccc1Br | inactive: 103%
O=C(O)c1cccc(-n2cccc2/C=C2/NC(=O)N(c3ccc(Cl)cc3)C2=O)c1 | active: 72%
CCN(C(=O)COC(=O)/C=C/c1c(C)nn(Cc2ccc(C)cc2)c1C)C1CCS(=O)(=O)C1 (stereo not drawn) | inactive: 97%
O=C(O)CCC(=O)N1c2ccccc2NC2=C(C(=O)CC(c3ccc(F)cc3)C2)C1c1ccc([N+](=O)[O-])o1 (stereo not drawn) | inactive: 96%
OCC(CO)(CO)NCc1ccc(-c2ccccc2)cc1 | inconclusive: 181%
O=C(/C=C/c1ccc(Cl)cc1Cl)NCCSc1ccccc1 | inconclusive: 91%
COC(=O)c1cc(-c2ccccc2)sc1NC(=O)CN1C(=O)c2ccccc2C1=O | inconclusive: 107%
O=Cc1c(NCc2ccco2)nc2ccccn2c1=O | inconclusive: 93%
COc1ccc(-c2csc(NC(=S)NC(=O)c3cccs3)n2)cc1OC | inconclusive: 78%

SMILES | percent activity (GTP binding)
COc1ccc(NC(=O)c2ccco2)cc1N | inconclusive: 101%
COc1cc2c(cc1OC)-c1cc(NCc3ccccn3)nc(=O)n1CC2 | active: 79%
Cc1cc2nc(-c3ccc(SCC(=O)Nc4nccs4)nc3)[nH]c2cc1C | inconclusive: 101%
c1ccc(OCc2nc3ccccc3[nH]2)cc1 | inconclusive: 106%
CN1CCN(Cc2nc3ccccc3c(=O)n2Cc2nc(-c3ccccc3F)cs2)CC1 | inactive: 98%
O=C1Nc2ccc(NS(=O)(=O)c3cccs3)c3cccc1c23 | inconclusive: 95%
Cc1ccccc1/C=C1\SC(=S)N(/N=C/c2cc([N+](=O)[O-])ccc2O)C1=O | inconclusive: 77%
Nc1nc(-c2ccc(Cl)cc2)nn1C(=O)c1cccnc1 | inconclusive: 103%
CCCc1cc(NCc2ccccn2)n2c(nc3ccccc32)c1C#N | inactive: 81%
CCN1CCN(c2ncc(C(=O)Nc3c(F)cc(F)cc3Br)c3ccccc23)CC1 | inconclusive: 101%
CC1=Nc2ccccc2N=C(NC(=O)c2ccccc2)C1c1ccccc1 (stereo not drawn) | inactive: 95%
Cc1cccc(-n2c(C)nc3cc(C(=O)NCc4ccc5c(c4)OCO5)ccc32)c1 | inconclusive: 88%
O=C(NC1CCNCC1)C1CC1 | inactive: 100%
CC(C)CNC(=O)c1nc(-c2ccccc2)n(-c2ccccc2)n1 | inconclusive: 102%
CCOC(=O)C1=C(CSc2nc(C)ccc2C#N)OC(N)=C(C#N)C1c1cccc(OC)c1OC (stereo not drawn) | inconclusive: 103%
Fc1cccc(Cc2noc(CN3CCN(c4cnccn4)CC3)n2)c1 | inactive: 101%
COCCN(C(=S)Nc1ccc(C(C)C)cc1)C(C)c1cccs1 (stereo not drawn) | inconclusive: 91%
O=C(/C=C/c1cccc(Br)c1)N1CCN(c2cccc(C(F)(F)F)c2)CC1 | inconclusive: 89%
O=C(O)CCCCCn1c(SCc2cc(=O)n3cc(Cl)ccc3n2)nc2ccsc2c1=O | inconclusive: 111%
CC(=O)Nc1ccc(NC(=O)c2ccccc2CC[N+](=O)[O-])cc1 | inconclusive: 110%
COc1ccc(C(=O)Nc2cc(Cl)ccc2C(=O)O)cc1 | active: 78%
CCCSc1nc(C)c(C(C)=O)cc1C#N | inconclusive: 104%
COc1ccccc1N(C(C)=O)c1nc(C)cc(C)c1C#N | inconclusive: 104%
COc1cccc(/C=N/Nc2nc3ccccc3n3cnnc23)c1 | inconclusive: 90%

SMILES | percent activity (GTP binding)
O=C(CSc1cnc2ccccc2n1)NC1CCCC1 | inconclusive: 106%
COC(=O)c1cc(NCc2c(F)cccc2Cl)ccc1N1CCOCC1 | inconclusive: 107%
CC(=O)Nc1ccc(N2CCCCC2)cc1 | inconclusive: 108%
O=C(O)CSc1ncccc1C(=O)O | inactive: 104%
CCOC(=O)c1nn(-c2ccc(C)cc2)c(=O)c2c(N)scc12 | inconclusive: 98%
COc1ccc(/C=C(\C#N)C(=O)OCC(=O)NC2CC2)cc1 | inactive: 95%
CCN(CC(=O)Nc1ccc(Cl)c(S(=O)(=O)N(C)C)c1)CC(=O)NC(C)C | inconclusive: 95%
CCOC(=O)CNS(=O)(=O)c1ccc(C(=O)O)cc1 | inconclusive: 105%
COc1ccc(C)cc1-n1nnnc1SCc1cc(=O)n2cc(C)ccc2n1 | inconclusive: 105%
COc1cnn(-c2ccc(Br)cc2)c(=O)c1SCc1ccccc1 | inconclusive: 105%
O=c1c2ccc([N+](=O)[O-])cc2ncn1Cc1ccccc1C(F)(F)F | inconclusive: 68%
O=C(COC(=O)/C=C/c1cccs1)Nc1ccc2ccccc2c1 | active: 73%
Cc1ccc(S(=O)(=O)N2CCCCC2)cc1NC(=O)COC(=O)c1ccc(O)cc1 | inactive: 93%
Cc1ccc2[nH]c(CCN(C)C)c(CC#N)c2c1 | inconclusive: 108%
CCN(CC)c1ccc2cc(-c3nc(-c4ccc(OC)cc4)cs3)c(=O)oc2c1 | inconclusive: 264%
CC1=C(C)CC(C(=O)NNC(=O)c2csc3c2CCC(C(C)(C)C)C3)C(C(=O)O)C1 (stereo not drawn) | inconclusive: 95%
COc1ccc2c(c1)nc(SCC(=O)c1ccc(Br)s1)n2C | inactive: 101%
CCc1ccc(C2C(C#N)=C(N)C(C#N)(C#N)C3=CCC(C(C)(C)C)CC32)cc1 (stereo not drawn) | inactive: 96%
COc1cccc(C(=O)Nc2ccc(-c3nc4ccccc4o3)c(O)c2)c1 | inconclusive: 95%
COC(=O)c1ncn(C2OC(COC(C)=O)C(OC(C)=O)C2OC(C)=O)n1 (stereo not drawn) | inactive: 98%
Cc1ccccc1C1NC(=S)NC2=C1C(=O)CCC2 (stereo not drawn) | inactive: 90%
